Assay results taken from the supplement of paper PMC11417369.
± gives the standard deviation of the averaged measurements. Some of the results follow.

tested on: PfAP2-LT AP2 domain (GST-tagged); assay: gcPBM binding intensity (ln(normalized median fluorescence intensity)); higher = stronger DNA binding
Outline: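 Plasmodium falciparum DNA-binding domains carrying a GST tag were expressed in E. coli and applied for 1 h, at about 25 μg on average, to an Agilent 4 × 180k array. The array held primer-extended double-stranded 36-bp intergenic genomic probes together with negative controls, and binding took place in 1× PBS with 1% milk, 0.2 mg/ml BSA, 0.5% salmon testes DNA and 0.03% Triton X-100. An Alexa488 anti-GST antibody detected bound protein, and the array was scanned at 488 nm. Binding intensity is taken as the highest Masliner-normalised natural-log median intensity across replicate spots of either probe orientation.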

Sequence	gcPBM binding intensity (ln)
TTTTCCATAAGAATTACACACAGAAAGGATAAGTAT [CACACA_site105]	9.02 ± 0.49
AAACAGCATGGTATACCTATAAAATATATATACTAA [GTGCAC_negctrl_site39]	8.81 ± 0.51
ATATTTACCTTTGTATGTACATATATAAAATATATC [XGTACX_site6367]	8.88 ± 0.5
TTTTGTAAAAAGAAAAATTAGAATATATCGTATATA [XGTACX_negctrl_site617]	8.11 ± 0.54
GTATATAAATATATATATATATATATATCTATATTT [CACACA_negctrl_site871]	9.02 ± 0.42
GTATTTTTACAAATTTGTACATATATATGAATATAC [XGTACX_site6717]	9.18 ± 0.4
AAAGAAAAATTAACATGTACAAAAATTACTTGTTCA [XGTACX_site6725]	8.58 ± 0.49
TCTGAAACAAGAAAAAGTACACAAATTACAAAACTA [XGTACX_site7641]	8.77 ± 0.45
AAAAAAAATTCACACTGTACAAAAGCATAAATAAAC [XGTACX_site5408]	9.15 ± 0.39
TAATAAATACAAAAATGTACACACATATATATATTT [XGTACX_site7430]	9.02 ± 0.38
TATATATATATTATCACACACTCACGTTTGACAAAA [CACACA_site689]	9.07 ± 0.4
TTATTTATTTATTCATGTACGTGTATTTTTTAAAAA [XGTACX_site7915]	8.62 ± 0.52
ATTGGGTACAAATACACACACATATATATATTAAGA [CACACA_site5330]	9.4 ± 0.4
AGTGTCATATTAACACGTACATAATTATTGTAGAGA [XGTACX_site568]	8.93 ± 0.39
ATATTGGAGCACAACACACACAAGTATATATATGGA [CACACA_site1546]	9.52 ± 0.3
TATATATATATATATTGTACATATATTATTATATAT [XGTACX_site7447]	9.21 ± 0.2
AAATAGCCAAAAATCATGCACACCTAAAAAAAAAAA [CACACA_site2572]	8.93 ± 0.45
AATTCTCTTAATAAATAAACACAAATAAATAATAAA [GTGCAC_negctrl_site499]	8.42 ± 0.41
CATACATACAAACACACACACACACCGATATATATA [CACACA_site8952]	10.29 ± 0.092

Sequence	gcPBM binding intensity (ln)
CACATACAGACATACACACACATATATATTAATATA [CACACA_site546]	9.56 ± 0.41
ATCAACATCTAACATTGTACATGTGATGTGTAAAAG [XGTACX_site547]	8.98 ± 0.35
ATATTTGCCCAAGATAGTACATATATATATATATAT [XGTACX_site7756]	9.74 ± 0.2
TATATAATAAAAAAAAGTACTTGGACAATATTATTT [XGTACX_site2802]	8.62 ± 0.45
TTAATTTACATGAACTGTACATAACATTTTTTTAAA [XGTACX_site4672]	8.38 ± 0.45
ATCAAAATATTTATATGTACATATTAAAAATATAGA [XGTACX_site725]	8.6 ± 0.38
TCAGTAATACTTGAATGTACTTATATTGTTTGTTTG [XGTACX_site6449]	8.87 ± 0.49
CCTATATTAAAACAAGCACACAATCGCATAATATCC [CACACA_site9052]	9.15 ± 0.26
AAGGAAATATAATATACACACATAAGTGTACTTATA [CACACA_site4030]	8.94 ± 0.4
GAAAAATTAAAAATAACACACACATATATATATTTA [CACACA_site8896]	9.21 ± 0.28
TAATAAAGTGAATAATGTACATTTTATTTATTATAT [XGTACX_site6614]	8.62 ± 0.45
ATTATATATCCCTATTCACACATGTATTATATAAAT [CACACA_site5486]	8.91 ± 0.47
CTAATATCTGTATGCACACACAATAAATACATATTT [CACACA_site5797]	9.25 ± 0.34
ATAAATAAATAAATAAATAAATAAATAAATATATAT [CACACA_negctrl_site1728]	8.74 ± 0.49
TCTTTTTCTTGACGAGTGCAAAAATTGTGTTTGAAA	8.48 ± 0.35
ATTTATTTTATATGTTGTACAAACATTTTAAAACAT [XGTACX_site6919]	8.69 ± 0.43
AATGCCTTGTTGAGGTGTACTGAATGTTATTTTAAT [XGTACX_site3255]	8.68 ± 0.43
TTTTTTTAAAGAATTATCATAAAATGATTGCATCAT [XGTACX_negctrl_site141]	8.3 ± 0.53
TTAACATATTTGTTAGTGCATTTTGATATTACACAT [GTGCAC_site9978]	8.88 ± 0.48

Sequence	gcPBM binding intensity (ln)
AAAAAAATTAAATGTACACACACCTTAAACAATGTC [CACACA_site1855]	9.16 ± 0.3
TTATTCTAGTAGTGTGTGCGCATGGACAATGCAATA	9.27 ± 0.33
ATACATATAATATATGCATGTACCAATCAAATATAT [TGCATGCA_site192]	8.89 ± 0.5
TATATATCGTTATATACACACATGTATATAAAAAAT [CACACA_site7501]	9.04 ± 0.4
TAATTTTTTTTTATGATACACACTTGGATAATTAAA [CACACA_site562]	8.37 ± 0.33
TTATTATATATTTTATTTATTAATAGTATATATTAT [TGCATGCA_negctrl_site155]	8.46 ± 0.54
ATATTTTATTTATATACACACACATATATATATTAT [CACACA_site8177]	9.43 ± 0.35
TTCTTTATATACAAACCAAAATATTATGTATAATAA [CACACA_negctrl_site15]	8.29 ± 0.33
CTTTATATAAAATAAAGTACATAAATTATGATATAT [XGTACX_site3699]	8.51 ± 0.42
TGTAATGTTTACAACACACAAATTAGAAATACAAAA [CACACA_site6924]	8.8 ± 0.44
AAGGAAGATATATACACACATACAAATATATATATA [CACACA_site2181]	9.39 ± 0.32
ACATATTTAAAAACATGTACAAATATATTTATAATT [XGTACX_site661]	8.71 ± 0.42
TTGTGTTTTATTATTTTATTATTACTATTATAATGT [GTGCAC_negctrl_site484]	8.9 ± 0.46
ATAAAACATAAATACATACACACATAATATATATTA [CACACA_site110]	9.26 ± 0.42
TAAAAATGGGTATGTACACACTTTATTTTTAATACA [CACACA_site5404]	8.76 ± 0.36
TATAAACATAAATATACACACAAACATATATGTATT [CACACA_site8324]	9.11 ± 0.35
CGTTTCCCCAATGGTTGTACAATATATATATATATA [XGTACX_site8641]	9.33 ± 0.28
AGACATATAATATATACACACATATATATATATATA [CACACA_site1066]	9.93 ± 0.085
TTATTTATAATGTTGTGTACATATATGAATATACCA [XGTACX_site3111]	8.72 ± 0.41
